Experimental data as given in the supplement of paper PMC4604168 (melanoma cell lines).
The other results are listed elsewhere or left out. Most values come without repeats; read them as rough.

What was measured:
Test in all cases: cell count relative to DMSO control; melanoma cells; higher = more viable cells
[1] = test system: WM115; details: library dose: low library concentration; 72 h
[2] = test system: WM1716; details: library dose: low library concentration; 72 h
[3] = test system: WM1745; details: library dose: low library concentration; 72 h
[4] = test system: WM3526; details: library dose: low library concentration; 72 h
[5] = test system: WM3619; details: library dose: low library concentration; 72 h
[6] = test system: WM451Lu; details: library dose: low library concentration; 72 h
[7] = test system: 501Mel; details: library dose: standard library concentration; 72 h
[8] = test system: A101D; details: library dose: standard library concentration; 72 h
[9] = test system: A2058; details: library dose: standard library concentration; 72 h
[10] = test system: A375; details: library dose: standard library concentration; 72 h

SMILES	cell count [1] [%]	cell count [2] [%]	cell count [3] [%]	cell count [4] [%]	cell count [5] [%]	cell count [6] [%]	cell count [7] [%]	cell count [8] [%]	cell count [9] [%]	cell count [10] [%]
C#Cc1cccc(Nc2ncnc3cc(OCCOC)c(OCCOC)cc23)c1 [erlotinib] + O=C(Oc1ccc([N+](=O)[O-])cc1)N1CCC(C(O)(c2ccc3c(c2)OCO3)c2ccc3c(c2)OCO3)CC1 [JZL184] (first compound 0.8 µM, partner dose 1 µM)	99.2	102	84.2	86.5	88	103	–	–	–	–
COc1cc2ncnc(Nc3ccc(Oc4ccccc4)cc3)c2cc1OC + O=C(Oc1ccc([N+](=O)[O-])cc1)N1CCC(C(O)(c2ccc3c(c2)OCO3)c2ccc3c(c2)OCO3)CC1 [JZL184] (first compound 2 µM, partner dose 1 µM)	107	96.2	94.7	49.5	102	96.5	–	–	–	–
CO[C@H]1C[C@@H]2CC[C@@H](C)[C@@](O)(O2)C(=O)C(=O)N2CCCC[C@H]2C(=O)O[C@H]([C@H](C)C[C@@H]2CC[C@@H](OCCO)[C@H](OC)C2)CC(=O)[C@H](C)/C=C(\C)[C@@H](O)[C@@H](OC)C(=O)[C@H](C)C[C@H](C)/C=C/C=C/C=C/1C [everolimus] + C/C(O)=C(\C#N)C(=O)Nc1cc(Br)ccc1Br [LFM-A13] (first compound 0.02 µM, partner dose 2 µM)	80.2	73.4	81.6	70.6	73	82	–	–	–	–
Clc1ccc(Nc2nnc(Cc3ccncc3)c3ccccc23)cc1 [vatalanib] + Cc1cc(SCc2sc(-c3ccc(C(F)(F)F)c(F)c3)nc2C)ccc1OCC(=O)O [GW0742] (first compound 2 µM, partner dose 2 µM)	112	117	83.3	90.8	99.3	108	–	–	–	–
Cn1c(Nc2ccc(C(F)(F)F)cc2)nc2cc(Oc3ccnc(-c4ncc(C(F)(F)F)[nH]4)c3)ccc21 + O=C(Oc1ccc([N+](=O)[O-])cc1)N1CCC(C(O)(c2ccc3c(c2)OCO3)c2ccc3c(c2)OCO3)CC1 [JZL184] (first compound 0.08 µM, partner dose 1 µM)	51.5	73.4	75.9	33	56.2	75.6	–	–	–	–
COCC[n+]1c2c(n(Cc3cnccn3)c1C)C(=O)c1ccccc1C2=O + C/C(O)=C(\C#N)C(=O)Nc1cc(Br)ccc1Br [LFM-A13] (first compound 0.0004 µM, partner dose 2 µM)	99.7	97.8	91.9	108	125	92	–	–	–	–
Nc1ccn([C@@H]2O[C@H](CO)[C@@H](O)C2(F)F)c(=O)n1 [gemcitabine] + C[As](C)SC[C@H](NC(=O)CC[C@H](N)C(=O)O)C(=O)NCC(=O)O [Darinaparsin] (first compound 0.0004 µM, partner dose 0.4 µM)	100	94.7	68.2	97	71.8	95.8	–	–	–	–
CO[C@H]1C[C@@H]2CC[C@@H](C)[C@@](O)(O2)C(=O)C(=O)N2CCCC[C@H]2C(=O)O[C@H]([C@H](C)C[C@@H]2CC[C@@H](OCCO)[C@H](OC)C2)CC(=O)[C@H](C)/C=C(\C)[C@@H](O)[C@@H](OC)C(=O)[C@H](C)C[C@H](C)/C=C/C=C/C=C/1C [everolimus] + C[As](C)SC[C@H](NC(=O)CC[C@H](N)C(=O)O)C(=O)NCC(=O)O [Darinaparsin] (first compound 0.02 µM, partner dose 0.4 µM)	79.4	67.6	81.7	66.9	67.9	71.5	–	–	–	–
C#Cc1cccc(Nc2ncnc3cc(OCCOC)c(OCCOC)cc23)c1 [erlotinib] + C/C(O)=C(\C#N)C(=O)Nc1cc(Br)ccc1Br [LFM-A13] (first compound 0.8 µM, partner dose 2 µM)	90.9	92.7	77.8	95.8	112	101	–	–	–	–
C=CCn1c(=O)c2cnc(Nc3ccc(N4CCN(C)CC4)cc3)nc2n1-c1cccc(C(C)(C)O)n1 + Cc1cc(SCc2sc(-c3ccc(C(F)(F)F)c(F)c3)nc2C)ccc1OCC(=O)O [GW0742] (first compound 0.02 µM, partner dose 2 µM)	78	80.4	82.6	69.2	94.3	105	–	–	–	–
COc1ccc(COc2ccc(Cc3cnc(N)nc3N)cc2OC)cc1 + Cc1cc(SCc2sc(-c3ccc(C(F)(F)F)c(F)c3)nc2C)ccc1OCC(=O)O [GW0742] (first compound 1 µM, partner dose 2 µM)	108	121	88	121	104	104	–	–	–	–
CC(C)C[C@H](NC(=O)[C@H](Cc1ccccc1)NC(=O)c1cnccn1)B(O)O [Bortezomib] + C[As](C)SC[C@H](NC(=O)CC[C@H](N)C(=O)O)C(=O)NCC(=O)O [Darinaparsin] (first compound 0.001 µM, partner dose 0.4 µM)	113	27.3	82.6	90.7	38.2	120	–	–	–	–
Cc1cc(Nc2cc(N3CCN(C)CC3)nc(Sc3ccc(NC(=O)C4CC4)cc3)n2)n[nH]1 [Tozasertib] + C[C@]12O[C@H](C[C@]1(O)CO)n1c3ccccc3c3c4c(c5c6ccccc6n2c5c31)CNC4=O [Lestaurtinib] (first compound 0.006 µM, partner dose 0.004 µM)	83.8	103	85	73.5	128	105	–	–	–	–
Cc1cc(Nc2cc(N3CCN(C)CC3)nc(Sc3ccc(NC(=O)C4CC4)cc3)n2)n[nH]1 [Tozasertib] + O=C(Oc1ccc([N+](=O)[O-])cc1)N1CCC(C(O)(c2ccc3c(c2)OCO3)c2ccc3c(c2)OCO3)CC1 [JZL184] (first compound 0.006 µM, partner dose 1 µM)	88	82.7	83.3	80.4	107	90.3	–	–	–	–
CC(C)C[C@H](NC(=O)[C@H](Cc1ccccc1)NC(=O)c1cnccn1)B(O)O [Bortezomib] + O=C(Oc1ccc([N+](=O)[O-])cc1)N1CCC(C(O)(c2ccc3c(c2)OCO3)c2ccc3c(c2)OCO3)CC1 [JZL184] (first compound 0.001 µM, partner dose 1 µM)	102	19.6	19.9	63.9	2.76	77.8	–	–	–	–
O=C1NC(=O)/C(=C/c2ccc(-c3ccc(F)cc3O)o2)S1 + O=C(Oc1ccc([N+](=O)[O-])cc1)N1CCC(C(O)(c2ccc3c(c2)OCO3)c2ccc3c(c2)OCO3)CC1 [JZL184] (first compound 1 µM, partner dose 1 µM)	102	93.2	101	95.9	123	114	–	–	–	–
Oc1nc(-c2ccc(C(F)(F)F)cc2)nc2c1CSCC2 + O=C(Oc1ccc([N+](=O)[O-])cc1)N1CCC(C(O)(c2ccc3c(c2)OCO3)c2ccc3c(c2)OCO3)CC1 [JZL184] (first compound 2 µM, partner dose 1 µM)	108	69.7	70.4	90.2	95.1	114	–	–	–	–
C[C@@H]1CCN(C(=O)CC#N)C[C@@H]1N(C)c1ncnc2[nH]ccc12 + C/C(O)=C(\C#N)C(=O)Nc1cc(Br)ccc1Br [LFM-A13] (first compound 5 µM, partner dose 10 µM)	–	–	–	–	–	–	92.8	123	128	139
COCC[n+]1c2c(n(Cc3cnccn3)c1C)C(=O)c1ccccc1C2=O + O=C(Oc1ccc([N+](=O)[O-])cc1)N1CCC(C(O)(c2ccc3c(c2)OCO3)c2ccc3c(c2)OCO3)CC1 [JZL184] (first compound 0.002 µM, partner dose 5 µM)	–	–	–	–	–	–	–	53.3	16.9	48.6
Cc1nc(Nc2ncc(C(=O)Nc3c(C)cccc3Cl)s2)cc(N2CCN(CCO)CC2)n1 [dasatanib] + O=C(Oc1ccc([N+](=O)[O-])cc1)N1CCC(C(O)(c2ccc3c(c2)OCO3)c2ccc3c(c2)OCO3)CC1 [JZL184] (first compound 0.02 µM, partner dose 5 µM)	–	–	–	–	–	–	–	59.1	62.3	53.6
Cc1cc(Nc2cc(N3CCN(C)CC3)nc(Sc3ccc(NC(=O)C4CC4)cc3)n2)n[nH]1 [Tozasertib] + Cc1cc(SCc2sc(-c3ccc(C(F)(F)F)c(F)c3)nc2C)ccc1OCC(=O)O [GW0742] (first compound 0.03 µM, partner dose 10 µM)	–	–	–	–	–	–	–	86.8	87.2	117
Clc1ccc(Nc2nnc(Cc3ccncc3)c3ccccc23)cc1 [vatalanib] + C/C(O)=C(\C#N)C(=O)Nc1cc(Br)ccc1Br [LFM-A13] (first compound 10 µM, partner dose 10 µM)	–	–	–	–	–	–	69.5	83.4	73	98.5
Nc1ccn([C@@H]2O[C@H](CO)[C@@H](O)C2(F)F)c(=O)n1 [gemcitabine] + C[As](C)SC[C@H](NC(=O)CC[C@H](N)C(=O)O)C(=O)NCC(=O)O [Darinaparsin] (first compound 0.002 µM, partner dose 2 µM)	–	–	–	–	–	–	–	88.2	47.4	72.3
CN1CCN(c2ccc3nc(-c4c(N)c5c(F)cccc5[nH]c4=O)[nH]c3c2)CC1 [Dovitinib] + C[As](C)SC[C@H](NC(=O)CC[C@H](N)C(=O)O)C(=O)NCC(=O)O [Darinaparsin] (first compound 0.5 µM, partner dose 2 µM)	–	–	–	–	–	–	–	58.8	52.1	65.1
C#Cc1cccc(Nc2ncnc3cc(OCCOC)c(OCCOC)cc23)c1 [erlotinib] + C[As](C)SC[C@H](NC(=O)CC[C@H](N)C(=O)O)C(=O)NCC(=O)O [Darinaparsin] (first compound 4 µM, partner dose 2 µM)	–	–	–	–	–	–	–	60.2	60.8	96.1
